Among all 230,000 compounds or so, about 3,600 (1.6%) were called active. Inconclusive means that the source gave no clear call. Such entries were picked first, then a sample of the others. The call rests on the fitted dose curve; in most records, active means well fitted inhibition curve with a large enough effect (not every such curve was filed as active); inconclusive means small, poorly fitted or top-dose-only effect, or another doubt; inactive means no such curve, though single readings can be large or run the other way. Where the call is inconclusive, the potency comes from a doubtful curve fit.
target: Lysine-specific demethylase 4E (Homo sapiens) (UniProt B2RXH2); test: qHTS Assay for Inhibitors of Human Jumonji Domain Containing 2E (JMJD2E); conditions: JMJD2E catalytic domain, FDH-coupled NADH fluorescence (FDH is formaldehyde dehydrogenase); series mostly up to 57.1 µM
Further: nearly all actives have a fitted effect of over 50% in size.
Potency means the concentration at half of the fitted maximal effect; tags describe the fitted curve by direction and shape.

UniProt B2RXH2, sequence (B2RXH2 whole entry, looked up, the tested form may be a part): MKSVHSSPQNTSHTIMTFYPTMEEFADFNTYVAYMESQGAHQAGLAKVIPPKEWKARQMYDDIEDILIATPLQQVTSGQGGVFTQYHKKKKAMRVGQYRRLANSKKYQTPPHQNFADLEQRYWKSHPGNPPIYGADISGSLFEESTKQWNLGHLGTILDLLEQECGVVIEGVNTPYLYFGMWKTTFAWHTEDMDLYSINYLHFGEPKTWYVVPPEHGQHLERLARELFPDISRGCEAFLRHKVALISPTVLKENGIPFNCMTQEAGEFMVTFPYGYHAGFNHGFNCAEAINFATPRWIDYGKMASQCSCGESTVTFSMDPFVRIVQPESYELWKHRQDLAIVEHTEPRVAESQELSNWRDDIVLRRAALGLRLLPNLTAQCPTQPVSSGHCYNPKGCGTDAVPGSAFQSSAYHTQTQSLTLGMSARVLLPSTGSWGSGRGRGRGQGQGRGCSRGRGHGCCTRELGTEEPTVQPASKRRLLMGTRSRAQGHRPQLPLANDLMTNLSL

**Q.** How did the Potency turn out when O=C(NCc1ccc2c(c1)OCO2)c1cc2ncc(Br)cn2n1 was run?
**A.** Its Potency is inconclusive: 35.5 µM [inhibitor, single point].

**Q.** Which Potency does the source give for O=C1CCCC(O)=C1C(C#Cc1ccccc1)C1=C(O)CCCC1=O here?
**A.** Its Potency is inconclusive: 39.8 µM [inhibitor, single point].

**Q.** CCCNC(=S)NCCN1CCCCC1 was tested. Which Potency did it give?
**A.** Its Potency is inconclusive: 22.4 µM [inhibitor, single point].

**Q.** With Cc1cccc(CCN2CCC(C(=O)c3ccc(NS(C)(=O)=O)cc3)CC2)n1 as the molecule, how does the Potency read?
**A.** Its Potency is inconclusive: 35.5 µM [inhibitor, single point].

**Q.** With CCCn1c(CN2CCN(C(=O)c3ccco3)CC2)nc2c1c(=O)n(C)c(=O)n2C as the molecule, how does the Potency read?
**A.** The Potency was “inactive”.

**Q.** Which Potency does the source give for CC(=O)Nc1ccc2c(CSc3nncs3)cc(=O)oc2c1 here?
**A.** Its Potency is inconclusive: 28.2 µM [inhibitor, partial curve].

**Q.** COC(=O)CCC(=O)OC1(C)C(=O)C=C2C=C(C3CC3)N(c3ccc(CO)cc3)C=C2C1=O (centres undefined) was tested. Which Potency did it give?
**A.** The Potency was inconclusive: 8.91 µM [inhibitor, single point].

**Q.** For COCCCn1c(=NC(=O)c2ccncc2)c(C#N)cc2c(=O)n3cccc(C)c3nc21, which Potency is on record?
**A.** Its Potency is inconclusive: 25.1 µM [inhibitor, partial curve].

**Q.** How did the Potency turn out when NC(=S)NN=C1c2cc(S(=O)(=O)N3CCOCC3)ccc2-c2ccc(S(=O)(=O)N3CCOCC3)cc21 was run?
**A.** Its Potency is “inactive”.

**Q.** How did the Potency turn out when C=CCNC(=O)c1ccc(S(=O)(=O)CC)c(Cl)c1Cl was run?
**A.** Its Potency is “inactive”.

**Q.** For O=C(COC(=O)/C=C/c1cccc(F)c1)Nc1ccc(Cl)cn1, which Potency is on record?
**A.** Its Potency is inconclusive: 39.8 µM [inhibitor, single point].

**Q.** With Cc1ccc(C(=O)C[n+]2ccc(-c3nnc4n3CCC4)cc2)cc1 as the molecule, how does the Potency read?
**A.** The Potency was inconclusive: 25.1 µM [inhibitor, partial curve].

**Q.** How did the Potency turn out when COC(=O)c1cc(N2CCN(C)CC2)nc2ccccc12 was run?
**A.** Its Potency is inconclusive: 28.2 µM [inhibitor, partial curve].

**Q.** How did the Potency turn out when CCOC(=O)c1c(-c2ccccc2)cn2c(C)cc(C)nc12 was run?
**A.** Its Potency is inconclusive: 31.6 µM [inhibitor, partial curve].

**Q.** How did the Potency turn out when COc1ccc(-c2oc3ncn(Cc4ccco4)c(=N)c3c2-c2ccc(OC)cc2)cc1 was run?
**A.** Its Potency is inconclusive: 31.6 µM [inhibitor, single point].

**Q.** How did the Potency turn out when CC1=C(C(=O)Nc2ccc(C)cc2)C(c2ccc(C)o2)C2=C(CC(C)(C)CC2=O)N1 (centres undefined) was run?
**A.** Its Potency is inconclusive: 35.5 µM [inhibitor, single point].

**Q.** For Cc1[nH]c(=O)c(C#N)c(C)c1Cc1ccc(Cl)cc1Cl, which Potency is on record?
**A.** The Potency was inconclusive: 2.82 µM [inhibitor, full curve].

**Q.** How did the Potency turn out when O=C(Nc1nccc(-c2cccs2)n1)c1ccccc1Cl was run?
**A.** Its Potency is inconclusive: 35.5 µM [inhibitor, single point].

**Q.** With Clc1ccc(/C=C\c2nccc3c2[nH]c2ccccc23)cc1 as the molecule, how does the Potency read?
**A.** The Potency was inconclusive: 35.5 µM [inhibitor, partial curve].

**Q.** With Cc1cc(-c2ccc(F)cc2)nc2cc(C(N)=O)nn12 as the molecule, how does the Potency read?
**A.** The Potency was inconclusive: 25.1 µM [inhibitor, partial curve].

**Q.** With CCCCn1c(NCc2ccccn2)nc2ccccc21 as the molecule, how does the Potency read?
**A.** The Potency was inconclusive: 39.8 µM [inhibitor, single point].

**Q.** How did the Potency turn out when CN1CCCN(Cc2ccc(Cl)cc2Cl)CC1 was run?
**A.** Its Potency is inconclusive: 25.1 µM [inhibitor, single point].

**Q.** Which Potency does the source give for CCCOc1ccc(C(=O)NNC(=S)NC(C)=O)cc1 here?
**A.** Its Potency is inconclusive: 39.8 µM [inhibitor, single point].

**Q.** How did the Potency turn out when O=C(CSc1ccsc1[N+](=O)[O-])NCc1ccco1 was run?
**A.** The Potency was “inactive”.

**Q.** How did the Potency turn out when c1ccc(CSc2nnc(-c3ccco3)c(-c3ccco3)n2)cc1 was run?
**A.** Its Potency is active: 7.94 µM.

**Q.** How did the Potency turn out when CCCn1c2ccc(F)cc2c2nnc(NN)nc21 was run?
**A.** Its Potency is “inactive”.

**Q.** With CCCCCCCCCCCCCCCC[n+]1cccc2ccccc21 as the molecule, how does the Potency read?
**A.** The Potency was inconclusive: 22.4 µM [inhibitor, partial curve].

**Q.** For CCOC(=O)N1CCN(C(=O)COc2ccccc2[N+](=O)[O-])CC1, which Potency is on record?
**A.** The Potency was inconclusive: 39.8 µM [inhibitor, single point].

**Q.** Which Potency does the source give for CC(=O)c1cccc(NC(=S)NC(=O)C(C)C)c1 here?
**A.** The Potency was “inactive”.

**Q.** For CCOCCn1c(=NC(=O)c2cc3ccccc3oc2=O)sc2cc(S(N)(=O)=O)ccc21, which Potency is on record?
**A.** The Potency was inconclusive: 35.5 µM [inhibitor, single point].

**Q.** For CCn1c(/C=N/n2cnnc2)nc2ccccc21, which Potency is on record?
**A.** Its Potency is inconclusive: 28.2 µM [inhibitor, partial curve].

**Q.** Which Potency does the source give for COc1ccc(Cn2c(=O)[nH]c3cc(C(=O)N4CCN(Cc5ccccc5)CC4)ccc3c2=O)cc1 here?
**A.** The Potency was “inactive”.

**Q.** CCOC(=O)c1c(-c2cccs2)csc1NC(=O)C(C)(C)C was tested. Which Potency did it give?
**A.** Its Potency is inconclusive: 39.8 µM [inhibitor, single point].

**Q.** How did the Potency turn out when CCCn1c(/C=C/c2ccccc2)nc2ccccc21 was run?
**A.** The Potency was inconclusive: 25.1 µM [inhibitor, partial curve].

**Q.** For Cn1c(SCCN2CCCCC2)nnc1-c1ccccc1Br, which Potency is on record?
**A.** The Potency was inconclusive: 35.5 µM [inhibitor, single point].

**Q.** For c1ccc(-c2csc3ncn4nnnc4c23)cc1, which Potency is on record?
**A.** The Potency was inconclusive: 31.6 µM [inhibitor, single point].

**Q.** Which Potency does the source give for O=c1c(-c2ccc(F)cc2)coc2cc(O)ccc12 here?
**A.** Its Potency is inconclusive: 25.1 µM [inhibitor, single point].

**Q.** Which Potency does the source give for CCOc1ccc(OCc2ccc(C(=O)Nc3cccc(C)n3)o2)cc1 here?
**A.** Its Potency is inconclusive: 39.8 µM [inhibitor, single point].

**Q.** CCSc1nc2n(n1)C(c1cccc(F)c1)C1=C(CCCC1=O)N2 (centres undefined) was tested. Which Potency did it give?
**A.** The Potency was inconclusive: 35.5 µM [inhibitor, single point].

**Q.** How did the Potency turn out when C[N+]1(CCOc2ccc([N+](=O)[O-])cc2)CCOCC1 was run?
**A.** The Potency was “inactive”.

**Q.** For CCc1cc2ccc(C)cc2nc1SCC(=O)Nc1cc(OC)c(OC)cc1C(=O)O, which Potency is on record?
**A.** Its Potency is inconclusive: 39.8 µM [inhibitor, single point].

**Q.** With CC(C)CC(=O)N1CCN(S(=O)(=O)c2ccccc2)CC1 as the molecule, how does the Potency read?
**A.** The Potency was “inactive”.

**Q.** Cc1ccc(-c2nc(CN(Cc3c(C)nn(C)c3C)C(C)C)c(C)o2)o1 was tested. Which Potency did it give?
**A.** The Potency was inconclusive: 28.2 µM [inhibitor, partial curve].

**Q.** For Oc1cc(-c2ccccc2)c2ccccc2c1, which Potency is on record?
**A.** The Potency was inconclusive: 25.1 µM [inhibitor, partial curve].

**Q.** For CCOC(=O)N1CCN(CC(=O)Nc2c(C(=O)OC)[nH]c3cc(C)ccc23)CC1, which Potency is on record?
**A.** The Potency was inconclusive: 31.6 µM [inhibitor, partial curve].

**Q.** How did the Potency turn out when CC(C)(C)[C@@H]1C=C(C(=O)Nc2ccccc2)O[C@H](OCc2ccc(CO)cc2)C1 was run?
**A.** The Potency was “inactive”.

**Q.** CCC(C)OC(=O)C1=C(C)NC2=C(C(=O)C(C(=O)OC)C(C)C2)C1c1ccc(N(C)C)cc1 (centres undefined) was tested. Which Potency did it give?
**A.** Its Potency is inconclusive: 28.2 µM [inhibitor, single point].

**Q.** Which Potency does the source give for CN(C)c1ccc(-c2nc3ccccc3n2C)cc1 here?
**A.** The Potency was inconclusive: 28.2 µM [inhibitor, partial curve].

**Q.** For CCOc1ccc2oc(C(=O)OC(C(=O)NC(N)=O)C(C)C)c(C)c2c1 (centres undefined), which Potency is on record?
**A.** Its Potency is inconclusive: 31.6 µM [inhibitor, partial curve].

**Q.** O=C(O)c1cc2nc3c(c(C(F)(F)F)n2n1)CCCC3 was tested. Which Potency did it give?
**A.** Its Potency is inconclusive: 39.8 µM [inhibitor, single point].

**Q.** For COc1ccc(C=O)cc1COc1ccc(F)cc1F, which Potency is on record?
**A.** The Potency was “inactive”.

**Q.** How did the Potency turn out when O=C(/C=C/c1ccco1)Nc1ccccc1C(=O)O was run?
**A.** Its Potency is inconclusive: 39.8 µM [inhibitor, single point].

**Q.** COc1ccc(Nc2cc(C(=O)NCCCN3CCN(C)CC3)c3ccccc3n2)cc1OC was tested. Which Potency did it give?
**A.** Its Potency is inconclusive: 39.8 µM [inhibitor, single point].

**Q.** How did the Potency turn out when Cc1cccc(C(=O)N2CCN(c3ccc(C(F)(F)F)cn3)CC2)c1C was run?
**A.** The Potency was inconclusive: 39.8 µM [inhibitor, single point].

**Q.** Which Potency does the source give for CC(=O)OCC(=O)[C@@]1(OC(C)=O)[C@H](C)C[C@H]2[C@@H]3C[C@H](F)C4=CC(=O)C=C[C@@]4(C)[C@]3(F)[C@H](O)C[C@@]21C here?
**A.** The Potency was “inactive”.

**Q.** COc1ccc(NC(=S)NC(NC(=O)c2cccc(Cl)c2)C(Cl)(Cl)Cl)c([N+](=O)[O-])c1 (centres undefined) was tested. Which Potency did it give?
**A.** Its Potency is “inactive”.

**Q.** O=C(Nc1ccc(/C=C/c2nc3ccccc3o2)cc1)c1c(F)cccc1F was tested. Which Potency did it give?
**A.** The Potency was inconclusive: 28.2 µM [inhibitor, partial curve].

**Q.** With Nc1c(C(=O)Nc2ccc(Cl)cc2)oc2ccccc12 as the molecule, how does the Potency read?
**A.** Its Potency is inconclusive: 2.82 µM [inhibitor, partial curve].

**Q.** How did the Potency turn out when Nc1ccc(Nc2ccccc2)c(Cl)c1 was run?
**A.** The Potency was “inactive”.

**Q.** O=C(CCC(=O)Nc1ccccc1)NNC(=O)c1ccco1 was tested. Which Potency did it give?
**A.** Its Potency is “inactive”.

**Q.** CCCC(=O)OCCNC(=O)c1cc2ccccc2oc1=O was tested. Which Potency did it give?
**A.** The Potency was inconclusive: 25.1 µM [inhibitor, single point].

**Q.** How did the Potency turn out when CCCCCCC(=O)N(O)C1CC(=O)N(Cc2ccccc2)C1=O (centres undefined) was run?
**A.** The Potency was inconclusive: 28.2 µM [inhibitor, single point].

**Q.** For COc1ccc(OC)c(NC(=O)Cn2cccc2)c1, which Potency is on record?
**A.** Its Potency is inconclusive: 25.1 µM [inhibitor, single point].

**Q.** How did the Potency turn out when CCN(Cc1ccncc1)Cc1c(O)ccc2cc(Br)ccc12 was run?
**A.** Its Potency is active: 7.08 µM.

**Q.** Cc1cc(=O)n2[nH]c(-c3ccc(Cl)cc3)cc2n1 was tested. Which Potency did it give?
**A.** Its Potency is inconclusive: 15.8 µM [inhibitor, partial curve].

**Q.** With COc1ccc(CCNC(=O)c2cc3c(=O)n(C)c4ccccc4c3n2C)c(OC)c1 as the molecule, how does the Potency read?
**A.** Its Potency is inconclusive: 31.6 µM [inhibitor, single point].

**Q.** With O=C(Nc1nccs1)c1cc(-c2ccco2)nc2ccccc12 as the molecule, how does the Potency read?
**A.** Its Potency is inconclusive: 35.5 µM [inhibitor, single point].

**Q.** How did the Potency turn out when Cc1cccc(N(C)C(=O)c2cc3c(=O)[nH]c4ccc(C)cc4c3s2)c1 was run?
**A.** The Potency was inconclusive: 35.5 µM [inhibitor, single point].

**Q.** How did the Potency turn out when Cc1ccc(C(C(=O)NC2CCCC2)N(Cc2ccc3c(c2)OCO3)C(=O)c2snc(C(N)=O)c2N)cc1 (centres undefined) was run?
**A.** The Potency was inconclusive: 25.1 µM [inhibitor, partial curve].

Reference: PubChem BioAssay AID2147 (National Center for Advancing Translational Sciences (NCATS), 2009)
